This sample is rich in variants without activity.
B1: TPR 5TU (parent)
chain: GGAUCUUCUCGAUCUAACAAAAAAGACAAAUCUGCCACAAAGCUUGAGAGCAUCUUCGGAUGCAGAGGCGGCAGCCUUCGGUGGCGCGAUAGCGCCAACGUUCUCAACUAUGACACGCAAAACGCGUGCUCCGUUGAAUGGAGUUUAUCAUG

Variants of: B1
Experiment: polymerase ribozyme fitness, log enrichment relative to wild type (log ratio); higher = more active; in vitro selection for triplet polymerase activity
Procedure, shortened: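 One round of in vitro selection, in triplicate, was applied to PCR-built, transcribed mutant libraries of each subunit of a heterodimeric triplet polymerase ribozyme. The steps were annealing with a biotinylated primer, partner subunit and triplets, incubation frozen at −7 °C, gel excision of extended constructs, streptavidin-bead capture and RT-PCR. Fitness is the logarithm, base 2, of genotype enrichment over wild-type enrichment from inverse-variance-weighted replicate averages of Illumina-sequenced inputs and outputs, keeping genotypes with ≥10 input reads and ≥1 read per output.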

GGAUCUUCUCGAUCUAACAAAAAAGACAAAUCUGCCACACAGCUUGAGAGUAUCUUAGGAUGCAGAGGCGGCAGCCUUCGGUGGCGCGAUAGCUCCAACGUUCUCAACUAUGAGACGCAAAACGCGUGCUCCGUUGAAUGGAGUUUAUCGUG [A40C C51U C57A G94U C114G A150G] and GGAUCUUCUCGAUCUAACAAAAAAGACAAAUCUGCCACACAGCUUGAGAGCAUCUUCGGAUGCAGAGGCGGCAGACUUCGGUGGCGCGAUAGCGCCAACGUUCUCAACUAUGAGACGCAAAACGCGUGCUCCGUUGAAUGGAGUUUAUCAUG [A40C C75A C114G] cannot be ordered by “polymerase ribozyme fitness (log ratio)” value: ≤ -4.2 for the first, ≤ -4.2 for the second.

First: GGAUCUUCUCGAUCUAACAAAAAAGACAAAUCUGCCACACAGCUUGAGAGCAUAGUCGGAUGCAGAGGCGGCAGCCUUCGGUGGCGCGAUAGCGCCAGCGUUCUUAAUUAUGACACGCAAAACGCGUGCUCCGUUGAAUGGAGUUUAUCAUG [A40C C54A U55G A98G C105U C108U]
Second: GGAUCUUCUCGAUCUAACAAAAAAGACAAAUCUGCCACACAGCUUGAGAGCAUCUUCGGAUGCAGAGGCGGCAGCUUUCGGUGGCGCGAUAGCGCCAACGUUCUCAACUAUGACACGCAAAACGCGUGCUCCGUUGAAUGGAGUUUAUCAUG [A40C C76U]
The “polymerase ribozyme fitness (log ratio)” value of the first is lower: ≤ -4.2 for the first, 0.0931 for the second.

Compared with GGAUCUUCUCGAUCUAACAAAAAAGACAAAUCUGCCACACAGCUUAAGAGCAUCUUCGGAUGCAGAGGCGGCAGCCUUCGGUGGCGCGAUGGCGCCAACGUUCGCAACUAUGACACGCGAAACGCGUGCUCCGUUGAAUGGAGUUUAGCAUG [A40C G46A A91G U104G A119G U148G], GGAUCUUCUCGAUCUAACAAAAAAGACAAAUCUGCCACACAGCUUGAGAGCAUCUUUGGAUGCAGAGGCGGCAGCCUUCGGUGGCGCGAUAGCGCCAACGUUCUCAACUAUGACACGCAAAACGCGUGCUCCGUUGAAUGGAGUUUAUCAUG [A40C C57U] is higher in “polymerase ribozyme fitness (log ratio)” value: ≤ -4.2 for the first, 0.521 for the second.

Going from GGAUCUUCUCGAUCUAACAAAAAAGACAAAUCUGCCACACAGCUUGAGAGCAUCUUCGGAUGCAGAGGCGGCAGCCUUCGGUGGCGCGAUAGCGCUAACGUUCUCAACUAUGACACGCAAAACGCGUGCUCCGUUGAAUGGAGGUUAUCAGG [A40C C96U U144G U151G] to GGAUCUUCUCGAUCUAACAAAAAAGACAAAUCUGCCACACAUCUUGAGAGCAUCUUCGGAUGCAGAUGCGGCAGCCUUCGGUGGGGCGAUAGCGCCAACGUUCUCAACUAUGACACGCAAAACACGUGCUCCGUUGAAUGGAGUUUAUCAGG [A40C G42U G67U C85G G124A U151G], the “polymerase ribozyme fitness (log ratio)” value falls from -3.73 to ≤ -4.2.

Compared with GGAUCUUCUCGAUCUAACAAAAAAGACAAAUCUGCCACACAGCUUGAGAGCAUCUUCGGAUGCAGAGGCGGCAGCCUUCGGUGGCGGGAUAGCGCCAACGUUCUCAACUAUGACACGCAAAACGCGUGCUCCGUUGAAUGGAGUUCAUGAUG [A40C C87G U146C C149G], GGAUCUUCUCGAUCUAACAAAAAAGACAAAUCUGCCACACAGCUUGAGAGCAUCUUCGGAUGCAGAGGCGGCAGCCUUCGGUGGCGCGAUAGUGCCAACGUUCUCAACUAUGACACGCAAAACGCGUGCUCCGUUGAAUGGAGUUUAUCAUG [A40C C93U] is higher in “polymerase ribozyme fitness (log ratio)” value: ≤ -4.2 for the first, 0.422 for the second.

First: GGAUCUUCUCGAUCUAACAAAAAAGACAAAUCUGCCACACAGCUUGAGAGCAUCUUCGGAUGCAGAGGCGGCAGCCUUCGGUGGCGUGAUAGCGCCAACGUUCUCAACCAUGACACGAAAAACGCGUGCUCCCUUGAAUGGAGUUUAUCAUG [A40C C87U U109C C118A G133C]
Second: GGAUCUUCUCGAUCUAACAAAAAAGACAAAUCUGCCACACAGCUUGAGAGCAUCUUCGGAUGCAGAGGCGGCAGCCUUCGGUGGCGAGAUAGCGCCAACGUUCUCAACUAUGACACGCAAAACGCGUGCUCCGUUGAAUGGAGUUUAUCAUG [A40C C87A]
The “polymerase ribozyme fitness (log ratio)” value of the first is lower: ≤ -4.2 for the first, -3.55 for the second.

First: GGAUCUUCUCGAUCUAACAAAAAAGACAAAUCUGCCACACAGCUUGAGAGCAUCUUCGGAUGCAGAGGCGGCAGCCUUCGGUGGUGCGAUAGCGUCAGCGUUCUCAACUAUGACACGCAAAACGCUUGCUCCGUUGAAUGGAGUUUAUCAUG [A40C C85U C95U A98G G126U]
Second: GGAUCUUCUCGAUCUAACAAAAAAGACAAAUCUGCCACACAGCUUCAGAGCAUCUUCGAAUGCAGAGGCGGCACCCUUCGGUGGCGCGAUAGCGCCAACGUUCUCAACUUUGACACGCAAACCGCGUGCUCCGUUGAAUGGAGUUUAUCAUG [A40C G46C G59A G74C A110U A122C]
The “polymerase ribozyme fitness (log ratio)” value of the first is higher: -1.37 for the first, ≤ -4.2 for the second.

Compared with GGAUCUUCUCGAUCUAACAAAAAAGACAAAUCUGCCACACAGCUUGACAGCAUCUACGGAUACAGAGGCGGCAGCCUUCAGUGGCGCGAUAGCGCCAACGUUCUUAACUAUGACACGCAAAACGCGUGCUCCGUUGAAUGGAGUUUAUCAUG [A40C G48C U56A G62A G80A C105U], GGAUCUUCUCGAUCUAACAAAAAAGACAAAUCUGCCACACAGCUUGAGAGCAUUUUCGGAUGCAGAGGCGGCAGCCUUCGGUGGCGCGAUAGCGCCAACGUUCUCAACUAUGACACGCAAAACGCGUGCUCCGUUGAAUGUAGUUUAUCAUG [A40C C54U G141U] is higher in “polymerase ribozyme fitness (log ratio)” value: ≤ -4.2 for the first, 0.7 for the second.

GGAUCUUCUCGAUCUAACAAAAAAGACAAAUCUGCCACACAGCUUGAGAGCAUCUUCGGAUGCAGAGGCGGCAGCCUUCGGUGGCGCGAUAGCGCUAACGUUCUCAACUAUGAUACGCAAAACGCGUGCUCCGUUGAAUGGUGUUUAUCAUG [A40C C96U C114U A142U] and GGAUCUUCUCGAUCUAACAAAAAAGACAAAUCUGCCACACAGCUUGAGACCAUCUUCGGAUGCAGAGGCGGCAGCCUUCGGUGGCGCGAUAGCGUCAACGUUCUCAACUAUGACACGCAAAACGCGUGCUCCGUUGAAUGGAGUUUAUCUUG [A40C G50C C95U A150U] cannot be ordered by “polymerase ribozyme fitness (log ratio)” value: ≤ -4.2 for the first, ≤ -4.2 for the second.

With GGAUCUUCUCGAUCUAACAAAAAAGACAAAUCUGCCACACAGCUUGAGAGUAUCUUCGGAUGCAGAGGCGGCAGCCUUCGGUGGCGCGAUAACGCCAACGUUCUCAACUAUGACACGCAAAACGCGUACUCCGUUGAAUGGAGUUUAUCAUG [A40C C51U G92A G128A] the “polymerase ribozyme fitness (log ratio)” value was ≤ -4.2.

Source: the RNAGym collection of RNA variant scans (doi:10.1073/pnas.2313332121)
